For 110 sequences, binding signal results are on record in publication PMC5836133.

Some of the results follow. At the low end of the ranking the order means little.

The experiment deals with T1, GST-NbGlk1(82-244).
T1 sequence: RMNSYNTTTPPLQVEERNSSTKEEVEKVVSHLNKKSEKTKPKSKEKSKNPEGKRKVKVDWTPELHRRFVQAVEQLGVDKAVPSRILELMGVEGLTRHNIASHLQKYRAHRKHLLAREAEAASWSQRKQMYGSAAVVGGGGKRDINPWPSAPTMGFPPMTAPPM
Briefly: protein-binding microarray.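 Further: rank-based score ranging −0.5 to +0.5 with E above 0.45 taken as significant binding.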 The settings on record: NbGlk1 is a Golden2-like transcription factor of Nicotiana benthamiana; high values mean tight binding; most listed sequences are background and not binding sites; double strand, one strand shown.
Regarding AAGTATCC, the binding signal was found to be 0.128 E-score. ATGGTCCG returned a binding signal of -0.123 E-score.

With ATGTTCGG, the binding signal was -0.02 E-score. CAACTGTA yielded a binding signal of -0.128 E-score. Turning to AGCTTCGG, the binding signal was -0.129 E-score. ACCTTGCT showed a binding signal of -0.0753 E-score. The value for AGTCCACG was -0.279 E-score; that for AGATCTAA was 0.303 E-score.

For AATATACA, the binding signal is 0.21 E-score.

As for AGTCCGGG, the binding signal is -0.317 E-score.

As to ATCATGAT, the binding signal amounted to 0.205 E-score. ATTCTGGG yielded a binding signal of 0.133 E-score.

ACAAAGCG gave a binding signal of -0.132 E-score. ACTTTGTC came in with a binding signal of -0.0795 E-score. ATACCGCG displayed a binding signal of 0.0651 E-score. The sequence CACCAGTC registered a binding signal of -0.264 E-score. For the sequence AAGCCTAT, the binding signal was found to be 0.0307 E-score.

In the case of ACACATGG, the binding signal was -0.225 E-score. As for ACCCACCT, the binding signal was -0.108 E-score.

For AGAAGTAT, the binding signal came to 0.214 E-score. ACTCCGGG: the binding signal is -0.14 E-score. The sequence AACCAAAA yielded a binding signal of 0.124 E-score.

Consider AGTCAAAA, for which the binding signal was 0.01 E-score. For the sequence ATGACGTC, the binding signal was -0.108 E-score. Sequence AAACCAGA had a binding signal of 0.00887 E-score. For AACATTTG, the binding signal was 0.0229 E-score. The value for CAAGCTAC was -0.233 E-score; that for AAGACCGC was -0.278 E-score. Sequence ACGGTCCG registered a binding signal of -0.239 E-score. Sequence ATGCTTCC registered a binding signal of -0.0887 E-score. Take AAAACTGA: the binding signal was 0.113 E-score. The figure for ATCGCCTC is 0.148 E-score. AATTCTCT: the binding signal worked out at 0.225 E-score. The figure for CAGAGGGC is -0.257 E-score; for AACGACGT it is -0.036 E-score; for AGCTGTAC it is -0.145 E-score. AGCCAATG: the binding signal was -0.135 E-score. In turn, CAATATTC gave a binding signal of 0.217 E-score. With CAGACAGC, the binding signal was -0.18 E-score. AGTGGCAG came in with a binding signal of -0.103 E-score. ACCGATAT came in with a binding signal of 0.364 E-score. CAAAGCTC showed a binding signal of -0.246 E-score. On to CAACCAGG, for which the binding signal was -0.0798 E-score. The value for CAAATGTA was -0.123 E-score; that for AGAGTAAA was -0.0726 E-score; that for ATAGATCC was 0.21 E-score. The value for AGCGATCC was 0.274 E-score; that for ATATAACC was -0.0154 E-score. In turn, AAATGATG yielded a binding signal of 0.051 E-score.

In the case of ACGAGAAA, the binding signal amounted to 0.133 E-score. The value for CAGCCACG was -0.235 E-score; that for AGCATTGA was -0.207 E-score.

ACAGCGCC returned a binding signal of -0.0907 E-score. As to AGTTGTGA, the binding signal was -0.0884 E-score.

AAAAGACT: the binding signal is -0.0557 E-score. Turning to ACACACAC, the binding signal was -0.0418 E-score.

In turn, ACTAGGCC yielded a binding signal of -0.203 E-score. On to ATCGAGGC, for which the binding signal was -0.0579 E-score. The sequence ATCCCAAT showed a binding signal of 0.201 E-score. ACACTGCT: the binding signal was -0.0856 E-score.

Regarding ACTCTTCG, the binding signal is -0.0546 E-score. For ACCAGAAC, the binding signal is -0.166 E-score. The value for AGGTGATA was 0.0464 E-score; that for AAGACTCA was -0.18 E-score.

CAATTACC registered a binding signal of 0.0684 E-score. ATAGGAAG yielded a binding signal of 0.00375 E-score.

AACCAGGA displayed a binding signal of -0.131 E-score.

Turning to ATGTCAAA, the binding signal was found to be 0.00806 E-score. ATGCCCGG registered a binding signal of -0.132 E-score. The value for AGGACCGC was -0.276 E-score; that for AAAGCAAC was -0.0724 E-score. In turn, ACGGCAGA yielded a binding signal of -0.0613 E-score. The value for ACGATTCG was 0.324 E-score.

For the sequence ATCACGAG, the binding signal was 0.129 E-score. ATCAAGAA: the binding signal is 0.0956 E-score. AAAATCTT: the binding signal is 0.447 E-score. AGGGCCGC gave a binding signal of -0.363 E-score.

Take AGGCTTCA: the binding signal is -0.241 E-score. The value for ATGTACAC was 0.0354 E-score; that for ATAAGGAA was 0.114 E-score; that for AGTGGCCA was -0.116 E-score. For ACTGCAGA, the binding signal is 0.0743 E-score. As for ACCAAATC, the binding signal was 0.406 E-score. The sequence AAATACAG showed a binding signal of 0.163 E-score.

On to AATCCTCT, for which the binding signal stood at 0.366 E-score.

For CAACTCCC, the binding signal was -0.17 E-score. For CAGCATCA, the binding signal was 0.159 E-score. The figure for ATAATTAC is 0.19 E-score. On to AGATGGTC, for which the binding signal was -0.0945 E-score. In turn, AGTCATCG showed a binding signal of -0.197 E-score. For the sequence AGCTCATA, the binding signal was -0.12 E-score. The sequence AAGACGAT displayed a binding signal of 0.221 E-score. AGGATTCA yielded a binding signal of 0.14 E-score. Take ACCACACT: the binding signal was -0.105 E-score. Sequence ATGCCTTG registered a binding signal of -0.0561 E-score.

In turn, ACCGACTA displayed a binding signal of -0.0528 E-score.

AGTCGGAT returned a binding signal of 0.0372 E-score.

Sequence ACTTTACC showed a binding signal of -0.0908 E-score. In turn, AATCGATA yielded a binding signal of 0.302 E-score. The figure for AGAACCCC is -0.188 E-score; for AGGCTTAT it is -0.0612 E-score. AGAAGCAA displayed a binding signal of -0.111 E-score. The value for ACACCAGT was -0.238 E-score; that for AGCGACGA was 0.0712 E-score.

Take ACGCTGCC: the binding signal is -0.171 E-score. With AACGACCA, the binding signal was -0.0768 E-score.

In turn, AACGCCGC registered a binding signal of -0.196 E-score.

Regarding AGTATAGG, the binding signal was -0.0161 E-score. Sequence CACGCTTC had a binding signal of -0.2 E-score. The value for AGCAGGTA was -0.0722 E-score.
